Experimental data as given in PubChem BioAssay (NCI).
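Dose response: 5 concentrations. Exposure: 48 h. Format: 96-well plates. Endpoint: linear interpolation; highest concentration if not reached. Abbreviation: GI50, concentration required for 50% inhibition of growth. TGI marks complete inhibition of growth.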

system: NCI-H322M lung; assay: DTP human tumour cell line panel, 48 h

Structure (SMILES)	GI50 [µM]	TGI [µM]
CC(C)N=C([Se])NC(=O)c1ccccc1	2.11	6.32
Cc1ccc(/C(CSc2nnc(-c3c[nH]c4ccccc34)n2-c2ccccc2)=N/O)cc1	3.54	19.8
COc1ccc(-c2ccnc(SCc3cc4cc(Cl)ccc4[nH]c3=O)n2)cc1	18.8	> 100
